Measured values: PubChem BioAssay AID1460 (National Center for Advancing Translational Sciences (NCATS), 2008)
Several values for one entry are separate records, joined by “and”; a condition that tells them apart may be missing. Equal values may be shown once. Among all 270,000 compounds or so, about 5,800 (2.1%) were called active. Inconclusive means that the source gave no clear call. Such entries were picked first, then a sample of the others. Calls come from the whole dose curve; as a rule, active = well fitted inhibition curve with a large enough effect; inconclusive = small, poorly fitted or top-dose-only effect; inactive = flat fitted curve, though single readings scatter. A potency beside an inconclusive call is a rough fit, not a confirmed value.
Note: nearly all actives have a fitted effect of over 55% in size.
Potency is the fitted concentration of half-maximal effect; tags give direction and shape of the fitted curve.

Each compound was assayed against Microtubule-associated protein tau (Homo sapiens) (UniProt P10636) (assay: qHTS for Inhibitors of Tau Fibril Formation, Thioflavin T Binding). Settings: recombinant tau K18 P301L (four-repeat tau fragment), heparin-induced fibrillization, ThT fluorescence; series mostly up to 57.4 µM.
Sequence of UniProt P10636 (P10636 whole entry, looked up, the tested form may be a part): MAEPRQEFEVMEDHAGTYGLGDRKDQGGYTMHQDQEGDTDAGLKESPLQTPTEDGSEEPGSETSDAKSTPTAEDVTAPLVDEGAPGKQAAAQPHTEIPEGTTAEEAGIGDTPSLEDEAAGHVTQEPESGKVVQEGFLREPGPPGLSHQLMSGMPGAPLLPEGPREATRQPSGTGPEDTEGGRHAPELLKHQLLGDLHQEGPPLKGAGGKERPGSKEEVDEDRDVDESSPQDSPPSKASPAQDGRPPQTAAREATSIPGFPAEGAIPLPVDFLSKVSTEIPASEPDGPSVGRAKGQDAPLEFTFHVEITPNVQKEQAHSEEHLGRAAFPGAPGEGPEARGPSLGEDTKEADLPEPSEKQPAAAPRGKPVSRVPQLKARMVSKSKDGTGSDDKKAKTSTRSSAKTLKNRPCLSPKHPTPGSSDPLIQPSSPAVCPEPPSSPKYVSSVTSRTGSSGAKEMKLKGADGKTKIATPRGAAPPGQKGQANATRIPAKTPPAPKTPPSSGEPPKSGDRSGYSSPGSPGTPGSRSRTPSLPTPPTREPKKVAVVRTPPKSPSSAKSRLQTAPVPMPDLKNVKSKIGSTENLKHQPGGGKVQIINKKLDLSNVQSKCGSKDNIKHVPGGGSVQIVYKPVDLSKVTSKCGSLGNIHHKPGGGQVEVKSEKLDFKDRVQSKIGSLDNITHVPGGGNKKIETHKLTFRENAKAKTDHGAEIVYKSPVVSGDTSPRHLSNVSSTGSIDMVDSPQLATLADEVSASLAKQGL
Outline: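 Aggregation was driven by heparin (20 uM final) acting on recombinant tau […] bearing P301L in 100 mM sodium acetate pH 7; fibrils were detected with Thioflavin T.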
With `O=c1c2c(nc3c(-c4cccc(Br)c4)c[nH]n13)CCCC2` the Potency was inconclusive: 4.47 µM [inhibitor, full curve]. In the case of `CCOC(=O)C1=C(CN(C)Cc2ccccc2)NC(=O)NC1c1ccc(OC(C)C)cc1` (stereo not given), the Potency is reported as inconclusive: 15.8 µM [inhibitor, partial curve, poor fit]. `CC(C)C[C@@H](NC(=O)OCC1c2ccccc2-c2ccccc21)C(=O)O` was tested, and the Potency was “inactive”. With `COc1ccc(C)cc1NC(=O)Cc1ccc(NC(=O)N2CCCCc3ccccc32)cc1` the Potency was “inactive”. With `Cc1ccc(NN2C(=O)C=CC2=O)cc1` the Potency was “inactive”. `CS(=O)(=O)Nc1ccc(C2=NN(C(=O)c3ccco3)C(c3cccc(F)c3)C2)cc1` (stereo not given) was tested, and the Potency was “inactive”. `O=C(COC(=O)c1cccc([N+](=O)[O-])c1)c1ccc(OCc2ccccc2)cc1` was tested, and the Potency was inconclusive: 3.16 µM [inhibitor, full curve]. `c1ccc(-c2nnc(N3CCOCC3)nc2-c2ccccc2)cc1` was tested, and the Potency was inconclusive: 31.6 µM [inhibitor, single point]. In the case of `COc1ccc2[nH]c(=O)c(CN(CC3CCCO3)C(=S)Nc3ccccc3)cc2c1` (stereo not given), the Potency is reported as “inactive”. `O=[N+]([O-])c1ccc(CN2CCCCCC2)s1` was tested, and the Potency was inconclusive: 22.4 µM [inhibitor, partial curve]. `O=C(Nc1ccc2nc(SCC(=O)N3CCc4ccccc43)sc2c1)c1ccc(Cl)cc1` was tested, and the Potency was inconclusive: 0.316 µM [inhibitor, full curve]. For `C=CCN1C(=O)/C(=c2\sc3nc(=O)c(Cc4ccccc4)nn3c2=O)c2ccccc21`, the Potency was active: 17.8 µM. For `COCCCNC(=S)Nc1cccc(S(=O)(=O)NC2=NCCC2)c1`, the Potency was “inactive”. For `C/C=C/C=C/C(=O)[C@@H]1[C@@H]([C@]2(C)OC(=O)C(C)=C2O)[C@H]2/C(=C(O)/C=C/C=C/C)C(=O)[C@]1(C)C(=O)C2(C)O` (stereo not given in full), the Potency was active: 14.1 µM. In the case of `COc1ccc(NC(=O)C2Cc3ccccc3CN2C(=O)c2ccccc2)cn1` (stereo not given), the Potency is reported as inconclusive: 15.8 µM [inhibitor, partial curve, poor fit]. `Cc1cc(C)n(CCC(=O)N=Nc2c(O)[nH]c3ccc(Br)cc23)n1` was tested, and the Potency was inconclusive: 28.2 µM [inhibitor, partial curve, poor fit]. For `Cc1sc(NC(=O)CSc2nnc(-c3ccccc3)o2)c(C#N)c1C`, the Potency was inconclusive: 14.1 µM [inhibitor, partial curve]. With `O=C1CCCC2=C1C1(CCCC1)N=C(Nc1nc3ccccc3s1)N2` the Potency was “inactive”. For `CCOc1cccc2cc(C(=O)Nc3ccccc3-c3ccccc3)c(=O)oc12`, the Potency was “inactive”. In the case of `CCN(CC)c1ccc(/C=N/N2CCN(Cc3ccccc3Cl)CC2)c(O)c1`, the Potency is reported as inconclusive: 14.1 µM [inhibitor, partial curve, poor fit]. `CCC(C)NC(=O)COc1ccccc1[N+](=O)[O-]` (stereo not given) was tested, and the Potency was “inactive”. For `Cc1nc2nc(-c3ccc(Cl)cc3Cl)nn2c(C)c1CCC(=O)Nc1ccc(F)cc1`, the Potency was “inactive”. `COc1cccc(N2CC(NC(=O)c3ccc4c(c3)OCO4)CC2=O)c1` (stereo not given) was tested, and the Potency was “inactive”. `CCC(=O)OCCNc1cc(Sc2nccn2C)c2nonc2c1[N+](=O)[O-]` was tested, and the Potency was active: 4.47 µM. In the case of `O=C(N/N=C/c1c[nH]c2ccc(Br)cc12)c1ccccn1`, the Potency is reported as inconclusive: 12.6 µM [inhibitor, partial curve]. `O=C(CS(=O)(=O)c1cccc2nsnc12)NCc1ccc(Cl)cc1` was tested, and the Potency was “inactive”. In the case of `Cc1cc2ncn(/N=C/c3ccc4c(c3)OCO4)c2cc1C`, the Potency is reported as inconclusive: 17.8 µM [inhibitor, partial curve]. With `COc1cccc(C(=O)NNC2=C(C(=O)C(F)(F)F)CCC2)c1` the Potency was inconclusive: 39.8 µM [inhibitor, partial curve, poor fit]. For `COc1cccc(-c2nnc3sc(-c4ccc(C)cc4)nn23)c1`, the Potency was inconclusive: 5.01 µM [inhibitor, partial curve]. `COc1cc(-c2nnc(-c3ccco3)o2)ccc1OCc1ccccc1` was tested, and the Potency was inconclusive: 28.2 µM [inhibitor, single point]. For `COc1ccc(/C=N/Nc2ncnc(Cl)c2N)cc1OC`, the Potency was inconclusive: 15.8 µM [inhibitor, partial curve]. `COc1cc(C2c3c(oc4ccccc4c3=O)C(=O)N2c2nncs2)cc(OC)c1OC` (stereo not given) was tested, and the Potency was inconclusive: 17.8 µM [inhibitor, single point]. `O=C(Nc1nc2ccccc2n1CCOc1ccc(Cl)cc1)c1ccco1` was tested, and the Potency was inconclusive: 15.8 µM [inhibitor, partial curve, poor fit]. `CCCCOc1ccc(C(=O)CCN2CCCCC2)cc1` was tested, and the Potency was inconclusive: 12.6 µM [inhibitor, partial curve, poor fit] and inconclusive: 7.94 µM [inhibitor, full curve]. In the case of `CCC1CN(C(=O)N2CCC(C(=O)Nc3cc(C)ccc3C)CC2)c2ccccc2O1` (stereo not given), the Potency is reported as “inactive”. With `CCOC(=O)c1c(NC(=O)Cc2coc3cc(C)ccc23)sc2c1CCCC2` the Potency was inconclusive: 1 µM [inhibitor, full curve, poor fit]. In the case of `O=C(O)Cc1sc(Nc2ccccc2Cl)nc1-c1ccccc1`, the Potency is reported as “inactive”. With `NC(=O)C(=CNc1nc(-c2ccc(Cl)c(Cl)c2)cs1)C(N)=O` the Potency was active: 15.8 µM. `CCOC(=O)C1=C(CNCCc2ccc(Cl)cc2)NC(=O)NC1c1cccc([N+](=O)[O-])c1` (stereo not given) was tested, and the Potency was inconclusive: 35.5 µM [inhibitor, single point]. For `CC(=O)c1ccc(NC(=O)C2CCCN(S(=O)(=O)c3ccc4c(c3)CCCN4C(C)=O)C2)cc1` (stereo not given), the Potency was “inactive”. With `Cc1nn2cc(-c3cccc(Cl)c3)cnc2c1Br` the Potency was inconclusive: 5.62 µM [inhibitor, partial curve]. With `COc1cc(NC(=O)c2cc(CC(C)C)on2)c(OC)cc1Cl` the Potency was inconclusive: 20 µM [inhibitor, single point]. `COc1ccccc1N1CCN(S(=O)(=O)c2c(C)sc3ncn(CC(=O)Nc4ccc(C(F)(F)F)cc4)c(=O)c23)CC1` was tested, and the Potency was “inactive”. `Cc1ccc(-c2ccc(=O)n(CC(=O)N3CCN(c4cccc(C)c4)C(C)C3)n2)cc1` (stereo not given) was tested, and the Potency was inconclusive: 20 µM [inhibitor, partial curve]. With `CCCCCCCOC(=O)c1nc(Cl)c(Cl)c(N)c1Cl` the Potency was inconclusive: 39.8 µM [inhibitor, single point]. `COc1ccc(CC(=O)NCc2nc3cccnc3n2Cc2ccc(C)cc2)cc1` was tested, and the Potency was “inactive”. For `O=[N+]([O-])c1cc(S(=O)(=O)CCCN2CCOCC2)ccc1F`, the Potency was inconclusive: 25.1 µM [inhibitor, partial curve]. In the case of `CC1=NOC(=O)/C1=C\c1ccc(-c2ccccc2Br)o1`, the Potency is reported as inconclusive: 12.6 µM [inhibitor, partial curve]. `COc1ccc(C2(c3ccc(OC(C)=O)cc3OC(C)=O)CC(c3ccccc3)NC(=S)N2)cc1` (stereo not given) was tested, and the Potency was “inactive”. For `COC(=O)c1ccc(NC(=O)C(=O)NCCc2sc(-c3cccc(F)c3)nc2C)cc1`, the Potency was inconclusive: 0.562 µM [inhibitor, full curve]. In the case of `O=C(CSc1n[nH]c(-c2ccncc2)n1)Nc1ccccn1`, the Potency is reported as “inactive”. For `Cc1ccc(N2CCN(C3=NC(=O)/C(=C\c4cccs4)S3)CC2)cc1`, the Potency was inconclusive: 8.91 µM [inhibitor, partial curve]. For `Cc1cc(C)n(C(=O)CCCn2nc(C)c([N+](=O)[O-])c2C)n1`, the Potency was “inactive”. In the case of `O=S(=O)(Nc1cccnc1)c1cccc(C(F)(F)F)c1`, the Potency is reported as “inactive”. In the case of `O=C(NCCN1CCCC1)c1ccc(Cn2c(=S)[nH]c3ccc(Br)cc3c2=O)cc1`, the Potency is reported as inconclusive: 25.1 µM [inhibitor, partial curve]. With `Cc1cc(C)n(CC(O)CN2c3ccccc3Sc3ccccc32)n1` (stereo not given) the Potency was inconclusive: 31.6 µM [inhibitor, single point]. `O=C(c1cncc(Br)c1)N1CCCc2ccccc21` was tested, and the Potency was “inactive”. `Cc1cccc(N/C=C(\[N+](=O)[O-])S(=O)(=O)c2ccccc2)c1C` was tested, and the Potency was “inactive”. In the case of `COc1cccc(N/C(SCc2ccccc2Cl)=C(/C#N)C(=O)NCc2cccs2)c1`, the Potency is reported as “inactive”. In the case of `Cc1oc(/N=C/c2ccc(Cl)cc2Cl)c(C#N)c1C`, the Potency is reported as inconclusive: 28.2 µM [inhibitor, single point]. `COc1ccc(C(=O)NC(=S)Nc2nc(C)c(C(=O)N(C)C)s2)cc1` was tested, and the Potency was “inactive”. With `NS(=O)(=O)c1ccc(CNC(=S)NC2CC2)cc1` the Potency was “inactive”. With `O=C(NC(=S)NNC(=O)c1ccccc1O)c1ccco1` the Potency was inconclusive: 10 µM [inhibitor, partial curve]. `O=C(/C=C/c1ccc(Cl)c([N+](=O)[O-])c1)Nc1ccc(N2CCCC2)c(Cl)c1` was tested, and the Potency was active: 1 µM. In the case of `CCOc1ccc(NCC2CCOC(C)(C)C2)cc1` (stereo not given), the Potency is reported as inconclusive: 15.8 µM [inhibitor, single point]. With `CC12CCC(c3nnc(SCc4ccc(Cl)cc4)nc31)C2(C)C` (stereo not given) the Potency was “inactive”. `CCN1C(=O)/C(=C/c2ccc(C)s2)SC1=Nc1ccc(OC)cc1` was tested, and the Potency was “inactive”. For `CCCCCCCCCCCCOCCOCCOCCOCCO`, the Potency was inconclusive: 22.4 µM [inhibitor, partial curve]. For `Cn1c(=O)cc(OCC(=O)NCCCN2CCN(c3cccc(Cl)c3)CC2)c2ccccc21`, the Potency was inconclusive: 15.8 µM [inhibitor, partial curve]. With `O=C(O)COc1ccc(C(=O)c2cccs2)c(Cl)c1Cl` the Potency was “inactive”. `COc1ccc(N2CCN(S(=O)(=O)c3ccc(C(=O)NCc4ccco4)cc3)CC2)cc1` was tested, and the Potency was “inactive”. `COc1cccc(O)c1O` was tested, and the Potency was active: 14.1 µM. In the case of `COc1ccccc1CNc1nc(-c2ccc(N(C)C)cc2)nc2ccccc12`, the Potency is reported as active: 15.8 µM. In the case of `CCOC(=O)C1CCCN(CCCc2ccccc2)C1` (stereo not given), the Potency is reported as “inactive”. `Cc1cccc(NCC(=O)c2c(N)n(C)c(=O)n(C)c2=O)c1C` was tested, and the Potency was inconclusive: 31.6 µM [inhibitor, single point].
